Test results reported in PubChem BioAssay AID463173 (ICCB-Longwood Screening Facility, Harvard Medical School, 2010).
The whole screen tested about 52,000 compounds, of which about 4,300 (8.3%) were called active. Rule as the data show it: active = survival mostly below about 52% (no sharp cut-off); inactive = mostly above about 56%. This is one part of the list.

These compounds were tested on DeltatarO mutant (assay: growth inhibition of S. aureus wild type versus tarO mutant, primary screen, teichoic acid synthesis inhibitors, RN4220, OD600 (AID 463173)). Conditions: OD600, 18 h, hits give low values, screened at 18.75 µg/mL (by protocol).

Row | Structure (SMILES) | survival
1 | CCOc1ccc(CC(=O)Nc2ccc3nc(N4CCCCC4)cc(C)c3c2)cc1OCC | inactive: 92%
2 | COc1ccc(Cl)cc1NC(=O)CCc1nc(-c2ccccc2F)no1 | active: 20%
3 | O=C(Cn1c(=O)n(Cc2ccc3c(c2)OCO3)c(=O)c2ccccc21)Nc1cccc(Cl)c1 | inactive: 65%
4 | CC1S/C(=N\C(=O)Nc2ccc(Cl)cc2)NC1=O (centres undefined) | inactive: 91%
5 | Cc1c(C(=O)N2CCCC2)oc2c1-c1nn(CC(=O)NCc3cccc(Br)c3)cc1CC2 | inactive: 75%
6 | Clc1cccc(CNc2ncnc3c2nc2n3CCCC2)c1 | inactive: 88%
7 | COc1ccc(-n2ncc3c(N4CCN(c5cccc(C)c5)C(C)C4)ncnc32)cc1 (centres undefined) | inactive: 79%
8 | Cc1nnc(SCc2cc(=O)n3c(C)cccc3n2)s1 | inactive: 91%
9 | O=C(C1CCC(CNS(=O)(=O)c2ccc(Br)s2)CC1)N1CCN(c2ccccc2)CC1 (centres undefined) | inactive: 78%
10 | CCOc1ccc(Cn2c(=O)oc3ccccc32)cc1 | inactive: 117%
11 | Cc1ccc(-c2noc(COc3ccc(Br)c(C)c3)n2)cc1 | inactive: 130%
12 | COc1ccc(CNC(=O)C2=C(C(=O)O)CCCC2)cc1 | inactive: 77%
13 | COc1cccc(N2CC(NC(=O)c3ccc(S(=O)(=O)N4CCCC4)cc3)CC2=O)c1 (centres undefined) | inactive: 75%
14 | O=C(NC1CCCC1)c1c[nH]c2ccc(S(=O)(=O)Nc3cccc(C(F)(F)F)c3)cc2c1=O | active: 16%
15 | CCN(c1ccccc1)S(=O)(=O)c1nnc(NC(=O)COc2ccc(OC)cc2)s1 | inactive: 55%
16 | CCOC(=O)c1c(C)oc2nc(C)nc(NCC3CCN(Cc4ccc(Cl)cc4)CC3)c12 | inactive: 94%
17 | CC(=O)OCC#CCSc1nnc(-c2cccc(Br)c2)o1 | inactive: 46%
18 | COc1ccc(-c2nc3n(n2)C(c2ccc(OC)cc2)C(C(=O)Nc2cccnc2)=C(C)N3)cc1 (centres undefined) | inactive: 89%
19 | CCOC(=O)c1[nH]c(C)c(CCC(=O)N2CCN(c3ccccc3)CC2)c1C | inactive: 86%
20 | COC(=O)C1C(=O)C2=C(CC1C)Nc1ccccc1NC2c1ccc(N(C)C)cc1 (centres undefined) | inactive: 79%

Row | Structure (SMILES) | survival
21 | OC1(c2ccccc2F)CCN(CCN2CCCCC2)CC1 | inactive: 99%
22 | Cc1ccc(-n2nnc3c(sc4nc(C)c(C)cc43)c2=O)cc1Cl | inactive: 86%
23 | COc1ccc(CSc2nc3ncccc3[nH]2)cc1 | inactive: 87%
24 | Cc1ccc(C)c(NC(=O)C2CCCN(S(=O)(=O)c3c(C)noc3/C=C/N(C)C)C2)c1 (centres undefined) | inactive: 111%
25 | Cn1c(=O)oc2cc(S(=O)(=O)CCC(=O)NCc3ccccc3)ccc21 | inactive: 77%
26 | CCOc1ccc(N(C)S(=O)(=O)c2ccc3c(c2)C(C)(C)C(=O)N3C)cc1 | inactive: 83%
27 | CCOc1ccc(N2CC(c3nc(-c4cc(OC)c(OC)c(OC)c4)no3)CC2=O)cc1 (centres undefined) | inactive: 102%
28 | Cc1nn(CC(=O)NCCc2ccc(Cl)cc2)c(=O)c2cc3cc(F)ccc3n12 | inactive: 76%
29 | CCn1c(SCc2ccccc2)nnc1-c1cccnc1 | inactive: 75%
30 | Cc1ccc(NC(=O)CCc2nnc3n(CC(C)C)c(=O)c4ccccc4n23)cc1C | inactive: 92%
31 | Cc1ccc(-n2nc3c(N4CCC(C(=O)N5CCCCC5)CC4)nnc(C)c3c2C)cc1 | inactive: 85%
32 | Cc1cc(N2CCCC(O)C2)nc(C)n1 (centres undefined) | inactive: 100%
33 | COc1ccc(CNC(=O)Cn2nc(C)c3nn(-c4ccc(Cl)cc4)c(C)c3c2=O)cc1 | inactive: 95%
34 | CCCN1C(=O)C(Cc2nc3ccccc3c(=O)n2CC)c2ccccc21 (centres undefined) | inactive: 84%
35 | CCCc1cc(N2CCN(c3cc(Cl)ccc3C)CC2)n2cnnc2n1 | active: 30%
36 | COc1ccc(-c2cc(NCc3ccc(F)cc3)n3cnnc3n2)cc1 | inactive: 61%
37 | Cc1c(Cl)cccc1N=C1NC(=O)CS1 | inactive: 99%
38 | Cc1cc(OCC(=O)NCC2(N3CCN(C)CC3)CCCCC2)cc(C)c1Cl | inactive: 69%
39 | O=C(Cc1ccccc1)Nc1sc2c(c1C(=O)Nc1ccccc1Cl)CCC2 | active: 34%
40 | COc1ccc(NC(=O)Cn2c(=O)n(-c3ccccc3)c(=O)c3c4c(sc32)CCCC4)cc1 | inactive: 98%

Row | Structure (SMILES) | survival
41 | c1ccc2c(c1)oc1c(NC3CCCC3)ncnc12 | inactive: 101%
42 | Cc1cc(C)cc(Nc2cc(-c3ccccc3)nc(C)n2)c1 | active: 8%
43 | COC(=O)c1c(NC(=O)c2cc3nc(-c4ccc(OC)cc4)cc(C(F)(F)F)n3n2)sc2c1CCCC2 | inactive: 78%
44 | CCCOc1ccc(N2CC(C(=O)Nc3cccc(Cl)c3Cl)CC2=O)cc1 (centres undefined) | inactive: 145%
45 | Cc1ccc2oc(C(=O)Nc3c(C(=O)Nc4ccccc4)oc4ccccc34)cc(=O)c2c1 | inactive: 73%
46 | O=S(=O)(c1ccccc1)c1nnn2c1nc(NCc1cccs1)c1sccc12 | inactive: 87%
47 | Cc1ccc(NC(=O)CCn2cccn2)cc1Cl | inactive: 87%
48 | CCOc1ccc(CCNC(=O)CN2C(=O)COc3ccc(S(=O)(=O)N4CCC(C)CC4)cc32)cc1 | inactive: 56%
49 | C=CCn1c(SC)nc2c1c(=O)[nH]c(=O)n2C | inactive: 94%
50 | O=C1NC(=O)C2C3c4ccccc4C(c4ccccc43)C12 (centres undefined) | inactive: 98%
51 | COc1ccc(-n2nnnc2SCSc2nnnn2-c2ccc(OC)cc2)cc1 | inactive: 79%
52 | CN(C(=O)c1cc(-c2ccccc2)on1)C1CCCCC1 | inactive: 91%
53 | CCOc1ccccc1NC(=O)C(Cc1ccccc1)NS(=O)(=O)c1ccc2c(c1)oc(=O)n2C (centres undefined) | inactive: 97%
54 | COc1ccc(-c2cc3nc(C)c(CCC(=O)N4CCN(c5cccc(Cl)c5)CC4)c(C)n3n2)c(OC)c1 | inactive: 62%
55 | O=C(NCc1cccs1)c1ccc2c(c1)N(Cc1ccccc1Cl)C(=O)c1ccccc1S2 | inactive: 84%
56 | COc1cccc(CNC(=O)C2CCN(c3ncccn3)CC2)c1 | inactive: 63%
57 | O=C(CN1C=NS(=O)(=O)c2ccccc21)Nc1ccc(F)cc1 | inactive: 87%
58 | COc1ccc(-c2cc(C(=O)OCC(=O)c3ccc(C)cc3)c3cccc(Cl)c3n2)cc1 | inactive: 65%
59 | Cc1ccccc1-c1ncnn1-c1sc2c(c1C#N)CCCCC2 | inactive: 72%
